The supplement of paper PMC12217912
This is one part of the list. Sequences were assembled here from the parent chain. Inactive controls read about 0.05.

B1: TEV protease; numbered along this chain (parent)
chain: MGESLFKGPRDYNPISSSICHLTNESDGHTTSLYGIGFGPFIITNKHLFRRNNGTLVVQSLHGVFKVKDTTTLQQHLVDGRDMIIIRMPKDFPPFPQKLKFREPQREERICLVTTNFQTKSMSSMVSDTSCTFPSGDGIFWKHWIQTKDGQCGSPLVSTRDGFIVGIHSASNFTNTNNYFTSVPKNFMELLTNQEAQQWVSGWRLNADSVLWGGHKVFMVKPEEPFQPVKEATQL

Variants of: B1
Test: raw area under fraction-flipped curve 0-4 h after induction (AUC4h, not background-subtracted), DNA-recorder readout of cleavage of the substrate (dimensionless); higher = more cleavage of the substrate by the protease variant
Details: temperature: 34 °C; time window: 0-4 h after rhamnose induction
Experimental: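 In vivo DNA recorder in E. coli TOP10(DE3) ΔrhaA at 34 °C. Each TEVp single-site mutant (parent TEVp 0) is paired with a single-site variant of the 7-mer TEVs (canonical ENLYFQ|S). The substrate sits between flexible linkers in a Bxb1-sfGFP-TEVs-SsrA fusion, so cleavage stabilises Bxb1 and speeds flipping of a recombination array, read by NGS. The value is the raw area under the fraction-flipped curve over 0-4 h after rhamnose induction (AUC4h), with ≥20 reads per time point. It is not background-subtracted; inactive controls average about 0.047.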
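Further: Bxb1 expression induced with 0.2% (w/v) L-rhamnose at OD600 near 0.5, cultures sampled hourly, flipped fraction per protease–substrate barcode pair counted by paired-end Illumina sequencing.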

Row | Variant | area with substrate ENLYAQS | area with substrate ENLYDQS | area with substrate ENLYGQS | area with substrate ENLYHQS | area with substrate ENLYKQS | area with substrate ENLYLQS | area with substrate ENLYNQS | area with substrate ENLYPQS | area with substrate ENLYQQS | area with substrate ENLYTQS | area with substrate ENLYVQS | area with substrate ENLYCQS | area with substrate ENLYEQS | area with substrate ENLYIQS | area with substrate ENLYMQS | area with substrate ENLYWQS | area with substrate ENLYRQS | area with substrate ENLYSQS | area with substrate ENLYYQS
1 | H215N | 0.0671 | 0.0613 | 0.0604 | 0.0808 | 0.0455 | 0.047 | 0.0723 | 0.0609 | 0.0734 | 0.0665 | 0.0597 |  |  |  |  |  |  |  | 
2 | V217G | 0.0726 | 0.0549 |  |  |  | 0.0841 | 0.0517 | 0.0621 |  |  | 0.0538 | 0.0552 | 0.0642 | 0.0409 | 0.0687 | 0.0385 |  |  | 
3 | F218T | 0.0703 | 0.0618 | 0.0616 | 0.0544 |  |  | 0.0581 | 0.0581 |  |  | 0.101 |  |  | 0.0947 | 0.0553 | 0.0715 | 0.0379 |  | 
4 | M219P | 0.05 | 0.065 | 0.0572 | 0.0552 | 0.0586 | 0.0589 | 0.0604 | 0.0516 | 0.0599 | 0.0708 | 0.0713 | 0.0441 | 0.0715 | 0.0676 | 0.0487 | 0.075 | 0.0657 | 0.0562 | 0.0935
5 | V220L | 0.0544 | 0.0597 | 0.0773 | 0.0558 | 0.0675 |  | 0.0685 | 0.0731 | 0.0661 |  | 0.114 | 0.0767 | 0.0691 | 0.145 | 0.0815 | 0.107 | 0.0634 | 0.0773 | 0.0611
6 | V220Y | 0.0724 | 0.0594 |  | 0.0645 | 0.029 | 0.063 | 0.053 | 0.0584 |  |  | 0.115 |  | 0.0809 | 0.0829 | 0.0796 |  | 0.0585 |  | 
7 | K221H | 0.102 | 0.161 | 0.0625 | 0.0522 | 0.0646 |  | 0.0586 | 0.0593 | 0.0632 | 0.078 | 0.105 | 0.0709 | 0.0615 | 0.0973 | 0.0812 | 0.0589 |  | 0.0768 | 0.0413
8 | K221M | 0.0441 | 0.0382 | 0.0696 | 0.0648 | 0.0403 | 0.0615 | 0.0677 | 0.0675 | 0.0675 |  | 0.101 |  | 0.058 | 0.0901 |  |  | 0.0696 | 0.0706 | 0.0596
9 | P222N | 0.0553 | 0.0583 | 0.0415 | 0.0687 | 0.0815 |  | 0.0592 | 0.0639 |  | 0.085 |  |  | 0.0605 | 0.104 | 0.0786 |  | 0.0655 | 0.0727 | 
10 | P225S | 0.0484 | 0.0445 |  | 0.0699 |  |  | 0.0683 |  |  |  |  | 0.0858 |  |  | 0.0966 | 0.0645 | 0.0382 | 0.0657 | 
11 | F226S | 0.0604 | 0.0684 | 0.066 | 0.0742 | 0.0698 |  | 0.0764 | 0.0729 |  |  |  |  | 0.0593 | 0.15 | 0.0709 | 0.09 | 0.0621 | 0.0633 | 
12 | Q227F | 0.0655 | 0.035 |  |  | 0.0787 |  |  |  | 0.0514 | 0.0779 | 0.119 |  | 0.0679 |  | 0.0831 | 0.0762 |  | 0.0663 | 
13 | Q227R | 0.0652 | 0.0644 | 0.0645 |  | 0.0589 |  | 0.0765 | 0.0592 | 0.0684 |  | 0.147 |  |  | 0.119 |  |  | 0.0596 | 0.0725 | 0.0644
14 | Q227Y | 0.0699 | 0.0711 | 0.0653 | 0.0708 | 0.0288 | 0.0769 | 0.067 | 0.0632 |  |  |  | 0.0768 | 0.0618 | 0.0726 | 0.0683 | 0.0721 | 0.059 | 0.06 | 
15 | P228E | 0.076 | 0.0613 |  | 0.0786 |  |  | 0.074 | 0.0438 |  |  |  |  |  | 0.127 | 0.0917 | 0.0975 |  |  | 
16 | V229P | 0.0569 | 0.0606 | 0.0634 |  | 0.0615 |  | 0.0664 | 0.0686 | 0.0579 |  | 0.114 | 0.0871 | 0.0727 | 0.156 | 0.0902 | 0.0818 |  |  | 
17 | E231L | 0.0694 |  |  | 0.0593 | 0.0705 | 0.0772 | 0.0769 | 0.108 |  |  |  | 0.099 | 0.0576 | 0.111 |  |  | 0.062 | 0.0635 | 
18 | E231P | 0.0559 |  |  |  |  |  | 0.0943 |  | 0.0744 |  | 0.103 |  | 0.0445 |  |  |  |  | 0.0634 | 
19 | T233C | 0.0401 |  | 0.0433 | 0.0717 | 0.0569 | 0.108 | 0.0686 | 0.066 |  |  | 0.0731 | 0.0857 | 0.0616 | 0.118 |  | 0.0619 | 0.0551 |  | 
20 | Q234M | 0.0744 | 0.0563 | 0.069 | 0.0601 | 0.075 |  | 0.0629 | 0.0672 | 0.0635 |  |  |  | 0.0688 | 0.0979 | 0.079 | 0.078 |  |  | 
21 | L235A | 0.0726 | 0.0546 | 0.0381 | 0.0654 | 0.0444 | 0.0936 | 0.078 |  | 0.0624 |  | 0.0969 |  | 0.0602 | 0.113 | 0.0819 |  | 0.0617 |  | 0.0614
22 | L235G | 0.0806 |  |  | 0.0873 | 0.0628 |  |  |  | 0.086 | 0.0944 |  |  | 0.0847 |  | 0.0841 |  |  | 0.059 | 0.0621
23 | L235S | 0.0785 | 0.0512 |  | 0.0692 |  |  |  | 0.0842 |  |  |  |  | 0.078 | 0.139 |  | 0.0764 | 0.0806 |  | 
24 | L5Y |  | 0.0383 |  |  | 0.0618 | 0.0928 | 0.0688 | 0.0802 |  | 0.0785 | 0.144 | 0.111 | 0.0513 |  |  |  | 0.0666 | 0.0765 | 
25 | Y12F |  | 0.0737 | 0.0489 | 0.0738 |  |  | 0.0623 |  | 0.0598 |  | 0.12 | 0.0837 | 0.0672 | 0.112 |  | 0.0756 | 0.0614 | 0.0767 | 0.0547
26 | I15V |  | 0.0666 | 0.101 | 0.0654 | 0.03 |  | 0.072 | 0.0789 | 0.0596 | 0.0763 | 0.117 | 0.0904 | 0.0604 |  |  |  | 0.0541 | 0.0725 | 0.0639
27 | S17Y |  | 0.0533 | 0.0607 | 0.0732 | 0.0619 | 0.0874 | 0.069 | 0.0872 | 0.0823 | 0.0793 | 0.117 | 0.107 | 0.0589 | 0.124 | 0.0374 | 0.0715 | 0.0622 | 0.0756 | 0.0709
28 | L22F |  | 0.0613 |  | 0.0558 | 0.0415 | 0.0681 | 0.0031 | 0.0599 | 0.0491 | 0.0607 | 0.0928 | 0.0536 | 0.058 | 0.0702 | 0.0614 | 0.0554 | 0.0347 |  | 0.0672
